Measurements published in PubChem BioAssay AID1159614 (National Center for Advancing Translational Sciences (NCATS), 2016).
The whole screen tested about 45,000 compounds, of which about 65 (0.1%) were called active. The call rests on the fitted dose curve; in most records, active means well fitted activation curve with a large enough effect; inconclusive means small, poorly fitted or top-dose-only effect; inactive means no such curve, though single readings can be large or run the other way. This is one part of the list.

Target: Galactocerebrosidase (Homo sapiens) (UniProt P54803)
Assay: A Novel Cell-Based Assay to Identify Small Molecules for B -Galactocerebrosidase; further: 0% is about no effect; nearly all actives have a fitted effect of over 65% in size
Conditions: 145M-Twi-hGALC-G270D cells (Twitcher mouse brain line with human GALC G270D), HMU-beta-Gal fluorescence, 48 h; series mostly up to 57.5 µM; activation: at the top concentration
Procedure, shortened: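 Brain-derived Twitcher mouse 145M-Twi cells stably expressing human GALC-G270D or wild-type GALC, treated live, then residual GALC activity read by fluorescence of HMU-b-Gal substrate (0.1 mM final) in citrate-phosphate buffer pH 5.2 with sodium taurocholate. Signal increase indicates enhancement.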

Sequence of UniProt P54803 (P54803 whole entry, looked up): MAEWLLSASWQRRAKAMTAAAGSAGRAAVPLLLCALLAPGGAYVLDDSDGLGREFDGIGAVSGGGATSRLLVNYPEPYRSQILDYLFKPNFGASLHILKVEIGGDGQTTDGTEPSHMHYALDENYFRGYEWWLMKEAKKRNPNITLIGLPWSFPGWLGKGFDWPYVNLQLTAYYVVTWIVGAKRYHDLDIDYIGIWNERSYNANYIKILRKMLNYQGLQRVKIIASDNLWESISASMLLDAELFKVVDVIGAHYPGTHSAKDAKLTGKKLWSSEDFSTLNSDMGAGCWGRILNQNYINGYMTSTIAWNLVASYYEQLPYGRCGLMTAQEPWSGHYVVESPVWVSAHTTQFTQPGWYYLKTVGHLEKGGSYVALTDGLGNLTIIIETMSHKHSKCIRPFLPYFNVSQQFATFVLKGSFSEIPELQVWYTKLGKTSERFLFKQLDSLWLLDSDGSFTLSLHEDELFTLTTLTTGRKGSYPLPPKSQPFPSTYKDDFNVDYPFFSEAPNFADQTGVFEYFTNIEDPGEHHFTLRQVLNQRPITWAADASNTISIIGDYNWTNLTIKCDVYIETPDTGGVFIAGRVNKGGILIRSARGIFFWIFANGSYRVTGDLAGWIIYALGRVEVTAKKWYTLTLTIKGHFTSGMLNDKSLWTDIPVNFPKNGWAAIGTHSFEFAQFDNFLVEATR

activation, inactive:
CNC(=O)C1CCC(Cn2c(=O)c3sccc3n(CC(=O)N3CCCCC3C)c2=O)CC1 (stereo unspecified) -29.4%
O=S(=O)(NCC(c1ccco1)S(=O)(=O)c1ccccc1)c1cc(F)ccc1F (stereo unspecified) -2.48%
Cc1cccc(-c2noc(-c3cccnc3NCc3ccccc3Cl)n2)c1 5.39%
Cc1ccc(Cl)cc1N1CCN(CCCNC(=O)Cn2ncc3c([nH]c4ccccc43)c2=O)CC1 0.239%
Cc1ccc(C)c(NC(=O)CN(C)S(=O)(=O)c2cccc3cccnc23)c1 2.88%
Cc1ccc(C(=O)Nc2ccccc2C(=O)OCc2cc(=O)n3nc(C(C)C)sc3n2)cc1 -10.4%
COc1ccc(CC(=O)NCCS(=O)(=O)N2CCN(c3ccccc3F)CC2)cc1OC -16.4%
CCOc1ccccc1NC(=O)C1CCC(CNS(=O)(=O)c2ccc3c(c2)CCCC(=O)N3)CC1 (stereo unspecified) -5.92%
CCCCCCCCCCCCCC[N+](C)(C)C -13.7%
CCc1cccc(C)c1Nc1c(-c2ccc(SC)cc2)nc2sccn12 -38.4%
COc1ccc(S(=O)(=O)c2c(Nc3c(C)cccc3C)sc(C(=O)c3ccc(F)cc3)c2N)cc1 -6.31%
Cc1ccc(CNc2nc3ccc(Cl)cc3n3cnnc23)cc1 -9.75%
COC(=O)c1ccccc1NC(=O)C1=CC(c2ccc3c(c2)OCO3)=NS(=O)(=O)N1C -9.23%
CCOc1ccc(CCNC(=O)c2cccc(Nc3nc4ccccc4nc3-n3nc(C)cc3C)c2)cc1OCC -32.6%
Cc1cccc(NC(=O)Cn2c(=O)n(Cc3ccccc3)c(=O)c3sc4ccccc4c32)c1 -1.54%
Fc1ccc(-c2noc3ncnc(Nc4ccc(F)cc4F)c23)cc1 -31.4%
CCOc1ccc(N(C(=O)c2ccc(Cl)cc2)S(=O)(=O)c2ccc3c(c2)n(C)c(=O)n3C)cc1 -3.32%
O=C(CC1N=C2c3ccccc3N=C(SCc3ccc(F)cc3)N2C1=O)NC1CCCCC1 (stereo unspecified) -16.2%
Cc1ccc(C)c(NC(=O)CSc2nc(-c3ccccc3)c(C#N)c(=O)[nH]2)c1 -5.99%
COc1ccc(-c2cc(-c3ccccc3)nc(SCC(=O)Nc3ccccc3C)c2C#N)cc1 -5.95%
CC(=O)c1cccc(NC(=O)Nc2c(C)n(C)n(-c3ccccc3)c2=O)c1 -4.98%
COc1cccc(CNc2nc3ccccc3c3nc(-c4cccc(C)c4)nn23)c1 -3.44%
CCN1CCc2nc(N)oc2CC1 -10.8%
O=C(CSc1ccc(-c2cccs2)nn1)Nc1ccccc1 -15.7%
Cc1cccc(NC(=O)CSc2ncc(-c3ccc(Br)cc3)[nH]2)c1 -12.7%
COc1ccc(CCNC(=O)Cn2nnc(-c3ccc(Cl)cc3)n2)cc1OC 4.55%
Cc1ccc(CN(Cc2ccco2)C(=O)c2ccc(Cl)cc2Cl)cc1 -6.75%
Cc1cccc(-c2nc(CCNC(=O)COc3ccccc3)cs2)c1 -13.1%
CC(NC(=O)CN1C(=O)COc2ccc(S(=O)(=O)N3CCCCCC3)cc21)c1ccccc1 (stereo unspecified) -4.29%
Cc1ccc(Sc2c(C(=O)NCc3cccc(F)c3)[nH]c3ccccc23)cc1 -5.76%
CC(C)Oc1ccc(CN2CCc3nc(Nc4ccc5c(c4)OCCO5)ncc3C2)cc1 -9.23%
COC(=O)c1ccc(NC(=O)CN2CCCN(Cc3ccc(Cl)cc3)S2(=O)=O)cc1 -43.1%
CCOCCCn1c(SCC(=O)Nc2cc(C)ccc2C)nc2c(oc3ccccc32)c1=O -13.7%
CCN1CCc2c(sc(NC(=O)c3ccc(S(=O)(=O)N(CCOC)CCOC)cc3)c2C(N)=O)C1 -26.6%
Cc1ccc(-c2nc3cc(NC(=O)c4cc5ccccc5o4)ccc3o2)cc1Cl -11.1%
Cc1c(C(=O)N(C)C)sc2c1c(=O)n(-c1ccc(Cl)c(Cl)c1)c(=O)n2CC(=O)C(C)(C)C -3.36%
COc1ccccc1CNC(=O)CCC(=O)N1CC(C)Sc2ccccc21 (stereo unspecified) 1.01%
COc1ccc(OC)c(NC(=O)CSC2=Nc3ccccc3C3=NC(CCC(=O)NCc4ccccc4)C(=O)N23)c1 (stereo unspecified) -15.9%
O=C(COc1ccc(Cl)cc1)N(Cc1ccco1)Cc1ccco1 -7.13%
Cc1ccc(NC(=O)CSc2nc3ccccc3n2CC(=O)N2CCC(C)CC2)cc1C 3.04%
CCCN(c1ccc(C(C)C)cc1)S(=O)(=O)c1ccc2c(c1)n(C)c(=O)c(=O)n2C -15.7%
CCc1nn(CC(=O)N2CCC(C)CC2)c(=O)c2cc3occc3n12 -10.1%
Cc1csc2nc(COC(=O)c3cccc(NC(=O)c4cccc(Cl)c4)c3)cc(=O)n12 5.86%
Cc1cccc(N2CCN(C(=O)CN3C(=O)COc4ccc(S(=O)(=O)N5CCC(C)CC5)cc43)CC2)c1C -5.49%
O=S(=O)(Nc1cccc(C(F)(F)F)c1)c1ccc(NS(=O)(=O)c2ccc3c(c2)OCCO3)cc1 0.0545%
COc1ccc(C(=O)Nc2cccc(-c3cn4ccsc4n3)c2)c(OC)c1 -0.251%
COc1ccc(Cl)cc1NC(=O)Cn1c(=O)oc2cc(S(=O)(=O)N3CCCCCC3)ccc21 -18.4%
O=C(c1cccs1)c1cn(CCOc2ccc(Cl)cc2)c2ccccc12 -12.8%
CC1=C(C(N)=O)C(c2cccc(O)c2)n2ncnc2N1 (stereo unspecified) -22.6%
Cc1ccc2sc(N(Cc3cccnc3)C(=O)Cc3ccccc3)nc2c1C -13.8%
Cc1ccc(-n2nc3c(N4CCC(C(=O)NC5CCC(C)CC5)CC4)nnc(C)c3c2C)cc1 (stereo unspecified) -10.5%
CCOc1ccc(N(CC(=O)Nc2cc(OC)cc(OC)c2)S(=O)(=O)c2c(C)[nH]c(=O)[nH]c2=O)cc1 -11.6%
CCC(=O)Oc1cc(C(C)(C)C)cc2cc(-c3nc(-c4ccc(OC)cc4OC)no3)c(=O)oc12 9.14%
C[N+](C)(C)CCOC(=O)CCC(=O)OCC[N+](C)(C)C -6.88%
CN(C)CCNC(=O)c1ccc(Cn2c(SCc3ccc(F)cc3)nc3cccnc32)cc1 -4.72%
Cc1ccc(C(=O)c2cn(Cc3ccccc3F)c3cc4c(cc3c2=O)OCCO4)cc1 -11.2%
Cc1nc(C2CCCCC2)c(-c2ccc(S(N)(=O)=O)c(F)c2)o1 -14.2%
CCn1c2ccccc2c2nnc(N3CCN(c4cccc(Cl)c4)CC3)nc21 2.9%
CCOC(=O)c1c(C)[nH]c(CCC(=O)NCc2ccc(OC)c(OC)c2)c1C -17.4%
Cc1ccc(CN2CCSc3ccc(C(=O)NCc4ccc(OC(C)C)cc4)cc32)cc1 -4.02%
Cc1cc(NS(=O)(=O)c2ccc(N)cc2)nc(C)n1 -13.2%
COc1ccc(-c2noc(CCCC(=O)Nc3cccc(Cl)c3C)n2)cc1 -21.6%
COc1ccc(CNC(=O)Cc2c(C)c3cc4c(C)coc4cc3oc2=O)cc1 -0.927%
CSc1nn(CC(=O)Nc2ccccc2F)c(N)c1S(=O)(=O)c1ccccc1 -4.16%
COCCCNC(=O)Cn1c(=O)n(-c2cccc(C)c2)c(=O)c2c1c1cc(C)ccc1n2C -6.01%
CCc1ccc(NC(=O)CCc2c(C)nc3nc(-c4cc(OC)cc(OC)c4)nn3c2C)cc1 9.67%
Cc1ccc(N2CCn3c2nc2c3c(=O)n(C/C=C/c3ccccc3)c(=O)n2C)cc1C -4.57%
COc1ccc(C2CC(=O)c3c([nH]c(C(=O)OCc4ccccc4)c3C)C2)cc1 (stereo unspecified) -25.1%
COc1cccc(/C=C/c2onc(C)c2S(=O)(=O)N2CCC(C(=O)N3CCCCC3)CC2)c1 -7.41%
Cc1ccc(OCCn2cc(C(=O)c3cccs3)c3ccccc32)cc1 4.41%
COCc1cc(C)nc2sc(C(=O)Nc3ccccc3O)c(N)c12 -7.95%
COc1ccccc1-c1c(C)nn2c(-c3ccccc3)cc(-c3ccccc3)nc12 -12.5%
CCOc1ccc(C2=NC(c3ccncc3)=Nc3ccc(C)cc3N2)cc1OCC -16.3%
Cc1cccc(N2CCN(C(=O)Cn3nc(C)c4sc5ccccc5c4c3=O)CC2)c1C -15.1%
Cc1ccsc1/C=C/C1=NCCCN1C -2.34%
COc1cccc(C(=O)Nc2ccc(-n3nncc3-c3ccccc3)cc2)c1OC -9.52%
COc1ccc(CNC(=O)Cn2c(=O)nc(-c3ccccc3)c3cc(Cl)ccc32)cc1OC -18.8%
CCCSCCCNC(=O)C1CCN(C(=O)c2cnn(-c3ccccc3)c2-n2cccc2)CC1 7.52%
COc1ccccc1NC(=O)C1=C(C)Nc2c(C(=O)Nc3ccc(C)cc3)cnn2C1c1cccc(OC)c1OC (stereo unspecified) -1.1%
COc1ccc(N(Cc2ccccc2)C(=O)c2nc(S(C)(=O)=O)ncc2Cl)cc1 -19.5%
Cc1ccccc1NC(=O)c1cc2c(-c3ccccc3)nn(-c3ccccc3)c2s1 -8.45%
COc1ccc(NC(=O)CSc2nc(-c3cccs3)cc(C(F)(F)F)n2)cc1Cl -10.1%
CCc1ccc(NCc2cc3ccc(OC)cc3n(CC(=O)Nc3ccccc3C)c2=O)cc1 -23%
CC(=O)c1cccc(NC(=O)CSc2nc3c(c(=O)[nH]2)CCC3)c1 -13.7%
CCC1=Nc2cc(C(=O)NCCc3ccc(OC)c(OC)c3)ccc2Sc2ccccc21 -17.3%
CCCCN(CCCC)CCNC(=O)Cn1nc(CC)n2c(cc3sccc32)c1=O -17.1%
CCc1c(C)sc2c1CCN(Cc1cccc(OC)c1)C2c1ccccc1 (stereo unspecified) -7.5%
CCc1ccc(C(=O)CC2(O)C(=O)N(CCc3ccccc3)c3ccc(Br)cc32)cc1 (stereo unspecified) -26.6%
Cc1ccc(CSC2=Nc3ccccc3C3=NC(CCC(=O)NC4CCCCC4)C(=O)N23)cc1 (stereo unspecified) -24.9%
COc1ccc(CCC(=O)NCc2ccc3c(c2)CCN3C(=O)c2ccc(Cl)cc2)cc1 1.06%
Cc1ccc(CNC(=O)C(NS(=O)(=O)c2cccs2)C(C)C)cc1 (stereo unspecified) -7.17%
CCc1ccccc1S(=O)(=O)Cc1ccc(C(=O)NCc2ccc(Cl)cc2)o1 -9.92%
COC(=O)c1ccc(Cl)cc1NC(=O)Nc1nnc(N(C)C2CCCCC2)s1 -8.46%
CCc1nc2ccccc2n2c(-c3ccc(C)cc3)c3c(=O)n(C)c(=O)n(C)c3c12 -16.9%
CCc1ccc2oc(C(=O)Nc3ccccc3OC)cc(=O)c2c1 -11.3%
O=C(Cn1c(=O)n(-c2ccc(F)cc2)c(=O)c2sc3ccccc3c21)NC1CCCC1 -2.38%
